Test results: paper PMC4336329 (PLoS ONE, 2015)
Among all 310,000 compounds or so, about 2,200 (0.71%) showed an effect of 50% or more. The effect is printed as a negative number. The list shows a part of the results.

These compounds were tested against human ether-à-go-go-related gene (hERG) potassium channel (human, UniProt Q12809) (assay: primary screen, population patch clamp on CHO cells stably expressing hERG).
Chain of human ether-à-go-go-related gene (hERG) potassium channel (Q12809 whole entry, looked up): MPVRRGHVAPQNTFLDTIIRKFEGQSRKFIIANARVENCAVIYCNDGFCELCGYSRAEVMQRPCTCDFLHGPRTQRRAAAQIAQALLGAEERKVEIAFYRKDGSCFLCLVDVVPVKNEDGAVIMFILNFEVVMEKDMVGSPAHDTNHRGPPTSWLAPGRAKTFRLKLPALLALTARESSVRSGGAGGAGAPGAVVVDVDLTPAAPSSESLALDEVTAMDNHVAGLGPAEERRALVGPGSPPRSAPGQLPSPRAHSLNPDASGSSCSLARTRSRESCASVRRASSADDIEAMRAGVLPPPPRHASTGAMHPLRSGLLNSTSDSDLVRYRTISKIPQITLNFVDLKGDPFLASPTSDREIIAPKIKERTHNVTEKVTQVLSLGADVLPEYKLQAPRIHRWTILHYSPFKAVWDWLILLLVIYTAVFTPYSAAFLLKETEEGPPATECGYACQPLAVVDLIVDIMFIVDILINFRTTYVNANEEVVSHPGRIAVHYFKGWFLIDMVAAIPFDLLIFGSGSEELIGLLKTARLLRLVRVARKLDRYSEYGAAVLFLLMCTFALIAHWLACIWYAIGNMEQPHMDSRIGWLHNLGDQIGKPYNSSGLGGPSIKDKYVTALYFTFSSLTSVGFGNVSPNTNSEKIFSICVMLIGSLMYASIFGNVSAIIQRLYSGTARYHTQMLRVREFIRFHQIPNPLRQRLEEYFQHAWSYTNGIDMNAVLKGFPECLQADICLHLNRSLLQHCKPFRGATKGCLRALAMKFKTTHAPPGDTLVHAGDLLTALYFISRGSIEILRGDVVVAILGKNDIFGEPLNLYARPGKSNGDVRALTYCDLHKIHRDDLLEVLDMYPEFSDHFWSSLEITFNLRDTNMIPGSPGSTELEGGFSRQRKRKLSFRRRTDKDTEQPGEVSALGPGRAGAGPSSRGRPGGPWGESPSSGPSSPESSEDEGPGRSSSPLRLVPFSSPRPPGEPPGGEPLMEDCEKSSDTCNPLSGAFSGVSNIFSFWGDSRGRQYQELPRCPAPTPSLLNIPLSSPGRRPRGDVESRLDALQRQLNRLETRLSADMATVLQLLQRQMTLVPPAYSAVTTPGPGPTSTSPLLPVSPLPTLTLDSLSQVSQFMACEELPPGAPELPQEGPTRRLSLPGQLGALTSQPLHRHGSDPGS

Row | Structure (SMILES) | hERG current change (%, negative = inhibition) at 1uM [%]
1 | O=C(/C=C/c1ccccc1Cl)NCCc1ccc(F)cc1 | 4.26
2 | Cc1cc(C)nc(SCC(=O)c2c(N)n(C)c(=O)n(C)c2=O)n1 | 17.1
3 | COc1ccc(C2C(C(C)=O)=C(O)C(=O)N2c2ccccn2)cc1 (stereo not drawn) | 10.2
4 | O=C(CCCn1c(=S)[nH]c2cc3c(cc2c1=O)OCO3)N1CCN(C2CCCCC2)CC1 | -6.95
5 | Cc1noc(/C=C/c2ccc(-c3ccccc3Cl)o2)c1[N+](=O)[O-] | 6.52
6 | Cc1ccc(C23CC4CC(CC(C(=O)OCC(=O)NC5CCS(=O)(=O)C5)(C4)C2)C3)cc1 (stereo not drawn) | 1.74
7 | COc1cccc(Nc2cc(C)nc3nc(C)nn23)c1 | -3.83
8 | CCOc1ccc(N2CC(C(=O)N3CCc4ccccc43)CC2=O)cc1 (stereo not drawn) | -8.82
9 | O=C(NCCc1nc(-c2ccccc2)no1)c1ccco1 | 11.3
10 | CCOc1ccccc1N(CC(=O)N1CCOCC1)S(=O)(=O)c1ccccc1 | 2.31
11 | O=C(N/N=C1\CCCc2ccccc21)c1ccc([N+](=O)[O-])cc1 | -2.14
12 | COc1ccc(-n2c(=O)c(CCC(=O)N3CCC(C)CC3)nc3ccccc32)cc1 | 7.44
13 | CN(CC(=O)Nc1ccc(Cl)cc1)C(=O)c1cccc(S(=O)(=O)N(C)C)c1 | 2.8
14 | CNC(=O)c1cccc2nc3ccccc3nc12 | 13.2
15 | Cc1ccsc1/C=N/NC(=O)c1cc(-c2ccncc2)nc2ccccc12 | 10.7
16 | COc1ccc(N2CCN(C3CCCN(C(=O)CN4CCCCC4=O)C3)CC2)cc1 (stereo not drawn) | 15
17 | N#C/C(=C\c1ccc[nH]1)C(=O)c1ccccc1 | 20.9
18 | CN(c1ccccc1)S(=O)(=O)c1ccc(NC(=O)c2cccs2)cc1 | 10.8
19 | CCOc1ccc(CN2CCC(C(=O)Nc3cccc(-c4ccn[nH]4)c3)CC2)cc1Cl | -8.18

Row | Structure (SMILES) | hERG current change (%, negative = inhibition) at 1uM [%]
20 | Cc1[nH]c2ccc(C(=O)NCC(C)(C)N3CCOCC3)cc2c1C | 4.36
21 | CCc1ccc(-c2nc(CN3CCC(C(=O)NCc4ccco4)CC3)c(C)o2)cc1 | -51.1
22 | COc1cccc(CN2CCNC(=O)C2CC(=O)NCCCn2ccnc2)c1 (stereo not drawn) | 31.2
23 | CNC(=S)NNC(=O)c1ccc(N(C)C)cc1 | 12.1
24 | COc1cccc(C(O)C2OC(=O)c3ccccc32)c1OC (stereo not drawn) | 14.7
25 | CCS(=O)(=O)N1CCC(c2nc(-c3ccc(C(F)(F)F)cc3)no2)CC1 | -3.65
26 | Cc1ccccc1-n1c(Cn2c(=O)sc3ccccc32)nnc1SC(C)C | 11.1
27 | COc1ccc(C(=O)CSc2nnn(-c3cccc(NC(C)=O)c3)n2)cc1 | 9.23
28 | O=C(COc1ccccc1C(=O)NCc1ccccn1)Nc1ccc(Br)cc1 | 12.6
29 | CSc1ccccc1C(=O)Nc1ccc(C)c(C)c1 | 8.81
30 | O=C(CCNS(=O)(=O)c1ccc(Br)cc1)N1CCN(c2ccccc2O)CC1 | -2.36
31 | Cc1ccc(S(=O)(=O)N2CCCC(N3CCOCC3)C2)cc1Cl (stereo not drawn) | 15.3
32 | CCN(CC)CCNC(=O)c1cccc(NC(=O)C(=O)c2ccccc2NC(C)=O)c1 | 5.64
33 | Cn1ncc(Br)c1C(=O)NCc1cccs1 | 4.27
34 | COc1cc(/C=C2/C(=O)NC(=O)N(c3ccccc3)C2=O)ccc1O | 4.18
35 | COc1cc(C2CC(=O)N(c3ccc(C)cc3)C(=O)C2)cc(OC)c1OC | 13
36 | O=C(NCCCn1ccnc1)c1ccc(C(F)(F)F)cc1 | 7.36
37 | COc1ccc(CC(=O)NC(C)c2nnc(SCCC(=O)Nc3ccccc3)n2C)cc1 (stereo not drawn) | 11.2
38 | CNC(=O)NC(=O)COc1ccc2oc3c(c2c1)CCCC3 | 7.84

Row | Structure (SMILES) | hERG current change (%, negative = inhibition) at 1uM [%]
39 | N#CC1=C(N)SC(N)=C(C#N)C1c1ccc(C(F)(F)F)cc1 | 9.49
40 | CNC(=O)CN(c1cc([N+](=O)[O-])ccc1OC)S(C)(=O)=O | 12.7
41 | Cc1ccccc1OCCn1c(C)nc2ccccc21 | 10.5
42 | COc1ccccc1NC(=O)CSc1nc(C)c2c(c1C#N)CCCC2 | 5.89
43 | CC(=O)c1c(C)n(C)c2ccc(OC(=O)c3ccco3)cc12 | 0.829
44 | O=C(NCC1CCCO1)c1cnn2c1NC(c1ccccc1)CC2C(F)(F)F (stereo not drawn) | 11
45 | O=C(NCC1CCCO1)c1ccc2c(=O)n(Cc3ccco3)c(SCC(=O)N3CCCC3)nc2c1 (stereo not drawn) | -54
46 | CCOC(=O)/C(=N/O)C1=NC(C)(C)Cc2cc(C)c(C)cc21 | 11.7
47 | CCOc1ccc(N2CC(C(=O)NNC(=O)c3ccc(F)cc3)CC2=O)cc1 (stereo not drawn) | 2.25
48 | O=C(NC1CCN(S(=O)(=O)c2ccccc2)CC1)c1ccc(F)cc1 | -8.42
49 | O=C(CCNS(=O)(=O)c1ccc(Br)cc1)NC1CCC(O)CC1 (stereo not drawn) | 11.1
50 | Cc1ccc(Oc2ccc(C(=O)NC3CCSC3=O)cn2)cc1 (stereo not drawn) | 7.31
51 | COc1ccccc1NC(=O)C(=O)N/N=C(\C)CC(=O)Nc1ccccc1C(F)(F)F | 14.4
52 | N#Cc1c(NC(=O)CN2CCOCC2)oc(-c2ccccc2)c1-c1ccccc1 | 4.87
53 | Cc1ccc(S(=O)(=O)N2CCC(N3CCCCCC3)CC2)cc1 | 7.84
54 | CCCN(CC(=O)Nc1ccccc1C)C(=O)c1ccc(=O)n(Cc2ccccc2)n1 | 14.1
55 | O=S(=O)(NCCc1ccc(Cl)cc1)c1cccs1 | 8.82
56 | CS(=O)(=O)N1CCN(c2ccccc2NC(=O)c2cccnc2Cl)CC1 | -1.51
57 | COc1ccc(N2CCN(C(=O)C3CCN(S(=O)(=O)c4c(C)noc4/C=C/N(C)C)CC3)CC2)cc1 | -2.82
